In test [1] the target is T1, human IL-13Rα2 (human, UniProt Q14627 27-343).
T1 construct: also called Human IL-13 R alpha 2 Protein; IL-13 decoy receptor
T1 sequence (looked up): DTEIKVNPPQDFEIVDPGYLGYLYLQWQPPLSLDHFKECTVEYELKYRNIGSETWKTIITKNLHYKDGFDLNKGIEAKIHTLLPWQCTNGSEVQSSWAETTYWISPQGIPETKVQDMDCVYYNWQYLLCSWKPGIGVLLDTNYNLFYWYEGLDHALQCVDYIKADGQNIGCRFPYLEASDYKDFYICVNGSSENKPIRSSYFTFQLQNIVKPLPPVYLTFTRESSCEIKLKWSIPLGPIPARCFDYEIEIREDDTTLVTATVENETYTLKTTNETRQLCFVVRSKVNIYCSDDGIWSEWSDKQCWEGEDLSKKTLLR
As to the kind of experiment: SPR on immobilized ligands with receptors as flow analytes using MCK, top trace marked 250 nM.

The target of test [2] is T1, human IL-13Rα2. As to the kind of experiment: SPR, historical data of the applicant. For orientation: SPR reads the build-up and loss of mass on a sensor chip optically.
For the next test, the target named is T2, mouse IL-13Rα2 (mouse, UniProt O88786 22-334).
T2 sequence (looked up): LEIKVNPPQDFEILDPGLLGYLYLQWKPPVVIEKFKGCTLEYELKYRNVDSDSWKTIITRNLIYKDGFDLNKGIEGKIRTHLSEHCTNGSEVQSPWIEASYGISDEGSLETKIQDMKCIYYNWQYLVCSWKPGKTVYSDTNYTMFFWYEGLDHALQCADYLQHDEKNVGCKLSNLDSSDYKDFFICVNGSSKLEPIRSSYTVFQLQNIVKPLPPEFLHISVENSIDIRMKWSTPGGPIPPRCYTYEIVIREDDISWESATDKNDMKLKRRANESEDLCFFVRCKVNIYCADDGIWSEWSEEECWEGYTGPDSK
As to the kind of experiment: SPR, construct on chip, receptor as analyte.

Another test addresses T3, mouse IL-13Rα1 (mouse, UniProt O09030 26-340).
T3 sequence (looked up): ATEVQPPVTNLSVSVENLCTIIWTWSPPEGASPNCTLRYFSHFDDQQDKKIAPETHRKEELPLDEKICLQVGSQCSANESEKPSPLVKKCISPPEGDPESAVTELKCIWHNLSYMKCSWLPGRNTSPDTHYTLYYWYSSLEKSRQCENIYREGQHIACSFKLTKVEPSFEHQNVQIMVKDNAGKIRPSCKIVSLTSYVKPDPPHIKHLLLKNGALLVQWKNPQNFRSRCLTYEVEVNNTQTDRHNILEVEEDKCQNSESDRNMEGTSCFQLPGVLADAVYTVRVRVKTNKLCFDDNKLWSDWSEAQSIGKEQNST
Nature of the test: SPR, construct on chip, receptor as analyte.

The next test concerns the target T4, cynomolgus IL-13Rα1 (cynomolgus, UniProt A0A7N9D0M5 20-341).
T4 construct: also called cyno IL-13Rα1
T4 sequence: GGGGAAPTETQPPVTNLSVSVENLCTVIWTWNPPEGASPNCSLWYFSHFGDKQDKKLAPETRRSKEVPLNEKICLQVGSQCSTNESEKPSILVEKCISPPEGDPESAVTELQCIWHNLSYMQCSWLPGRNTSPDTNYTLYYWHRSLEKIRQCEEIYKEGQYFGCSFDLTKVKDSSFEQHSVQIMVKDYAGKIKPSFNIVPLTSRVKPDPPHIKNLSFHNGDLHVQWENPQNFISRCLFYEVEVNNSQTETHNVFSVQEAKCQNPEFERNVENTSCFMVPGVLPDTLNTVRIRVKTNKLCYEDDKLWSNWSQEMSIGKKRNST
Nature of the test: SPR, construct on chip, receptor as analyte.

Test [3] deals with T1, human IL-13Rα2. Nature of the test: SPR, construct on chip, receptor as analyte.
The target in test [4] is T5, human IL-13Rα1 (human, UniProt P78552 22-343).
T5 construct: also called Human IL-13 R alpha 1 Protein; IL-13 functional receptor
T5 sequence (looked up): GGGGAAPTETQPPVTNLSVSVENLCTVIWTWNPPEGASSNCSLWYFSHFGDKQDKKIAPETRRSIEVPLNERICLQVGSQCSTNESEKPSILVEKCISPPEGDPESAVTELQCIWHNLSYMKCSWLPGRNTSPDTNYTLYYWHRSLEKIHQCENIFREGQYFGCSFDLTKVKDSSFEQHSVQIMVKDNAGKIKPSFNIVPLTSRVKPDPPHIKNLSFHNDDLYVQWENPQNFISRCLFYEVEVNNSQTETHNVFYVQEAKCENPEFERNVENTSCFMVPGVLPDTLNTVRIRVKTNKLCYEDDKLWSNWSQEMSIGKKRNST
Nature of the test: SPR, construct on chip, receptor as analyte.

Test [5] has as its target T1, human IL-13Rα2. As to the kind of experiment: SPR, construct on chip, receptor as analyte. The source holds these as a separate data set.
The target in test [6] is T5, human IL-13Rα1. Nature of the test: SPR, construct on chip, receptor as analyte. This is another data set of the same source.

Where two headings read alike, the source gives them in different places.

B1: Fc-MDNA413^R39/Q111 (1:2) (Fc fusion)
chain: [sequence of human IgG1 Fc with changes not given]GGGSGGGGSGGGGSPGPVPPSTAVRALIEELINITQNQKAPLCNGSMVWSINRTAGMYCAALESLINVSGCSAIEKTQDMLSGFCPHKVSAGQFSSLHVRSSKIEVAQFVKDLLFHLRTLFREGQFN
notes: also called Fc-MDNA413 (1:2)
What is called Kd is the free concentration of one partner at which half of the binding sites on the other are occupied at equilibrium, for simple one-to-one binding. Read a high Kd as a looser complex. In the case of B1, the Kd worked out at 19.6 nM with human IL-13Rα2 [1]; 19 nM in the test with human IL-13Rα2 [2]; 34.8 nM with mouse IL-13Rα2; 25.5 nM in the test with mouse IL-13Rα1; 65.5 nM in the test with cynomolgus IL-13Rα1.

B2: Fc-IL13 (1:1 KIH) (Fc fusion)
chain: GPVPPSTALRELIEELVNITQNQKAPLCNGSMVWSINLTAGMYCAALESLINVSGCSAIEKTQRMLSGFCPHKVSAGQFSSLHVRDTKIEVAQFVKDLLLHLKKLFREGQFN
For B2, the Kd came out at 0.15 nM in the test with human IL-13Rα2 [3] and 470 nM with human IL-13Rα1 [4].

B3: MDNA132.15-Fc-MDNA413 (1:1:2 KIH) (Fc fusion)
chain 1: PGPVPPSTAHRELIRELVNITQNQKAPLCNGSMVWSINLTAGMYCAALESLINVSGCSAIEKTQRMLSGFCPHKVSAGQFSSLHVTGRKIEVAQFVKDLLLHLKKLFKEGQFNGGGGSGGGGSGGGGSDKTHTCPPCPAPELLGGPSVFLFPPKPKDTLMISRTPEVTCVVVDVSHEDPEVKFNWYVDGVEVHNAKTKPREEQYASTYRVVSVLTVLHQDWLNGKEYKCKVSNKALPAPIEKTISKAKGQPREPQVYTLPPCRDELTKNQVSLWCLVKGFYPSDIAVEWESNGQPENNYKTTPPVLDSDGSFFLYSKLTVDKSRWQQGNVFSCSVMHEALHNHYTQKSLSLSPGGGGGSGGGGSGGGGSPGPVPPSTAVRALIEELINITQNQKAPLCNGSMVWSINRTAGMYCAALESLINVSGCSAIEKTQDMLSGFCPHKVSAGQFSSLHVRSSKIEVAQFVKDLLFHLRTLFREGQFN
chain 2: [sequence of human IgG1 Fc with changes not given]GGGGSGGGGSGGGGSPGPVPPSTAVRALIEELINITQNQKAPLCNGSMVWSINRTAGMYCAALESLINVSGCSAIEKTQDMLSGFCPHKVSAGQFSSLHVRSSKIEVAQFVKDLLFHLRTLFREGQFN
As to B3, the dissociation constant Kd with human IL-13Rα2 [5] came to 1.9 nM; with human IL-13Rα1 [6] it was 39.4 nM.

The record behind these values is US20250387474A1 (MEDICENNA THERAPEUTICS, published 2025).
